From PubChem BioAssay AID485294 (National Center for Advancing Translational Sciences (NCATS), 2010)
In all, about 370,000 compounds went through this assay and about 150 (0.041%) were called active. This list was built around the results that the source calls inconclusive (neither active nor inactive); the mix of calls is not that of the screen. The call rests on the fitted dose curve; in most records, active means well fitted inhibition curve with a large enough effect; inconclusive means small, poorly fitted or top-dose-only effect; inactive means flat fitted curve, though single readings scatter. No potency is given beside an inconclusive call; the fits are too rough.

Target: Beta-lactamase (Escherichia coli (strain K12)) (UniProt P00811)
UniProt P00811, sequence (P00811 whole entry, looked up): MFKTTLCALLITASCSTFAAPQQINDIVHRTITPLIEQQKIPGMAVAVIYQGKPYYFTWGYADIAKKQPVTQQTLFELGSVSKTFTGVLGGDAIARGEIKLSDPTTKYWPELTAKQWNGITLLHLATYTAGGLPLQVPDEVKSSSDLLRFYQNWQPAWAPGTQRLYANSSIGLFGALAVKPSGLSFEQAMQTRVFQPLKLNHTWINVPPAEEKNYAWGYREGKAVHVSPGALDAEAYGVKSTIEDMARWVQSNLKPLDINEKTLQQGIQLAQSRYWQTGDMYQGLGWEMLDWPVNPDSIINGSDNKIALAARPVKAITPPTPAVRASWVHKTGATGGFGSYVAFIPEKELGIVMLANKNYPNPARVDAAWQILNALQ
Assay: qHTS Inhibitors of AmpC Beta-Lactamase (assay with detergent); further: nearly all actives have a fitted effect of over 25% in size;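 on activity change, negative = inhibition: 0% = no-compound wells and -100% = no-enzyme wells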
Conditions: AmpC hydrolysis of nitrocefin, absorbance 480 nm, 0.01% Triton; activity change, negative = inhibition: at 114 µM (top of the series)
How it was run: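 20 mM phosphate pH 7.0 + 0.01% (detergent screen) or 0.0001% Triton X-100; 5.3 nM AmpC reagent; cpd preinc 15 min RT; nitrocefin (800 uM stock) to start; A480 q20 s × 4 min; Activity was normalised to no-enzyme and no-compound control wells.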
Potency means the concentration at half of the fitted maximal effect; tags describe the fitted curve by direction and shape.

| Compound | Potency | activity change, negative = inhibition |
| --- | --- | --- |
| CC(C)NC[C@@H](O)COc1ccc(CC(N)=O)cc1 | inconclusive [inhibitor, partial curve, poor fit] | – |
| CC(NC(=O)c1ccc(Cl)cc1Cl)C(c1ccccc1)N1CCOCC1 (stereo not drawn) | inconclusive [inhibitor, full curve] | – |
| COc1ccc(N(CC(=O)NCc2ccc(Cl)cc2)S(=O)(=O)c2ccccc2[N+](=O)[O-])c(OC)c1 | – | inactive: 2.43% |
| COc1ccc(C(=O)Nc2nnc(C)s2)cc1 | – | inactive: 0.803% |
| COc1cc(OC)cc(C(=O)NNC(=O)c2ccc3ccccc3n2)c1 | inconclusive [inhibitor, full curve, poor fit] | – |
| Cc1cc(C)c(NC(=O)Cn2nnc(C(=O)NCc3ccco3)c2N)c(C)c1 | inconclusive [inhibitor, full curve, poor fit] | – |
| Cc1cc(C)c2nc(N3CCCC(C(=O)NCCCN4CCOCC4)C3)sc2c1 (stereo not drawn) | – | inactive: -3.09% |
| COc1ccccc1Cn1c(=S)[nH]c2cc(C(=O)NCc3cccnc3)ccc2c1=O | – | inactive: 11.7% |
| O=C(c1ccc(CS(=O)Cc2ccc(Cl)cc2)o1)N1CCN(c2ccccc2F)CC1 (stereo not drawn) | inconclusive [inhibitor, full curve, poor fit] | – |
| C=CCc1cccc(/C=N/NC(=O)CCCNc2ccc(C)cc2)c1O | – | inactive: 5.4% |
| O=C(COC(=O)CCS(=O)(=O)c1ccc(Cl)cc1)Nc1ncc(Cl)cc1Cl | inconclusive [inhibitor, full curve, poor fit] | – |
| COc1ccc(-c2nc(-c3ccc(Br)o3)no2)cc1OC | inconclusive [inhibitor, full curve, poor fit] | – |
| CCOC(=O)C(C)Oc1cccc2c(=O)n(CC(=O)NCCc3ccc(OC)c(OC)c3)ccc12 (stereo not drawn) | inconclusive [inhibitor, full curve, poor fit] | – |
| Cc1ccccc1CS(=O)(=O)CCC(=O)NCCN1CCN(c2cccc(Cl)c2)CC1 | inconclusive [inhibitor, single point] | – |
| COc1cccc(C(c2nnnn2CS(=O)(=O)c2ccc(C)cc2)N2CCN(C)CC2)c1OC (stereo not drawn) | inconclusive [inhibitor, full curve] | – |
| CCS(=O)(=O)c1ccc2c(c1)N(S(C)(=O)=O)CC(C(=O)NC1CC1)O2 (stereo not drawn) | inconclusive [inhibitor, partial curve] | – |
| Cn1c(=O)c2c(O)cc(=O)n(-c3ccccc3)c2n(C)c1=O | inconclusive [inhibitor, single point] | – |
| O=C(NC(=S)Nc1ccc(N2CCCCC2)cc1)c1ccco1 | inconclusive [inhibitor, full curve, poor fit] | – |
| CCN(CC)C(=O)C1CCN(c2nnc(C)c3c(C)n(-c4ccc(Cl)cc4)nc23)CC1 | – | inactive: 18.8% |
| CCCCn1c(SCC(=O)NC(C)CC)nc2ccc(N3CCOCC3)cc2c1=O (stereo not drawn) | – | inactive: -1.54% |
| Cc1ccc(S(=O)(=O)N(CC(=O)N/N=C\c2cccs2)c2cccc3cccnc23)cc1 | inconclusive [inhibitor, full curve] | – |
| O=C(Oc1ccc(Cl)c2cccnc12)c1cccc([N+](=O)[O-])c1 | inconclusive [inhibitor, partial curve, poor fit] | – |
| COc1ccc(N2C(=O)/C(=C/c3ccc([N+](=O)[O-])cc3)C=C2c2ccccc2)cc1 | inconclusive [inhibitor, full curve, poor fit] | – |

| Compound | Potency | activity change, negative = inhibition |
| --- | --- | --- |
| COc1ccc(C(C)(C)C)cc1NC(=O)c1cncc(Br)c1 | inconclusive [inhibitor, full curve, poor fit] | – |
| [N-]=[N+]=NCCN1CCN(CCc2ccccc2)CCC1=O | inconclusive [inhibitor, full curve, poor fit] | – |
| O=C(CSc1nnnn1C1CCCC1)NCc1ccccc1 | inconclusive [inhibitor, full curve, poor fit] | – |
| CC1=CC=CC2=NC(=O)CC(C)(C(=O)N(CC(=O)NC3CCCC3)c3ccccc3C)N12 (stereo not drawn) | inconclusive [inhibitor, single point] | – |
| O=c1c2ccccc2nc(-c2ccc(Cl)c(Cl)c2)n1O | – | inactive: 0% |
| CCn1c(=O)c2sccc2n2c(CCCC(=O)NC3CCN(Cc4ccccc4)CC3)nnc12 | – | inactive: 2.8% |
| COc1ccc(OC)c(NC(=O)CSc2nnc(Cc3cccn3C)n2-c2ccc(F)cc2)c1 | inconclusive [inhibitor, full curve] | – |
| CCNc1cc(N2CCCC2)ccc1[N+](=O)[O-] | inconclusive [inhibitor, full curve] | – |
| O=C(COC(=O)c1cc(-c2ccc(Cl)s2)nc2ccccc12)NCc1ccco1 | – | inactive: -2.45% |
| CCOC(=O)N1CCN(CC(O)COc2ccccc2C(C)C)CC1 (stereo not drawn) | – | inactive: -4.93% |
| CC(CCN1CCN(c2ccccn2)CC1)c1ccccc1 (stereo not drawn) | inconclusive [inhibitor, full curve, poor fit] | – |
| C[n+]1c(/C=C/c2ccc3c(c2)OCO3)ccc2ccccc21 | inconclusive [inhibitor, single point] | – |
| Cc1ccc(CC(=O)N2CCN(C(=O)c3ccco3)CC2)cc1 | inconclusive [inhibitor, partial curve] | – |
| COc1ccccc1C(=O)Nn1c(-c2cccs2)nc2ccccc2c1=O | inconclusive [inhibitor, full curve, poor fit] | – |
| Cc1c(OC(C)C(=O)NCCCN2CCOCC2)ccc2c3c(c(=O)oc12)CCCC3 (stereo not drawn) | – | inactive: 0.418% |
| CC(C(=O)N(C)CC(=O)Nc1ccccc1C(F)(F)F)N1C(=O)c2ccccc2C1=O (stereo not drawn) | inconclusive [inhibitor, full curve, poor fit] | – |
| Cc1ccccc1-c1nn2c(=O)cc(CN3CCN(S(=O)(=O)c4ccc(Cl)cc4)CC3)nc2s1 | – | inactive: -1.64% |
| O=C(c1ccccc1Br)N1CCN(c2ncccn2)CC1 | inconclusive [inhibitor, full curve, poor fit] | – |
| Cc1nn(-c2ccc(N3CCCC3)nn2)c(C)c1CCC(=O)N1CCN(c2ccccc2)CC1 | – | inactive: -0.285% |
| c1ccc(-n2cnc3cc(NCc4ccccn4)ccc32)cc1 | inconclusive [inhibitor, single point] | – |
| O=C(N/N=C/c1cn(-c2cccs2)nc1-c1ccccc1)c1ccccc1Br | inconclusive [inhibitor, full curve, poor fit] | – |
| CCN(Cc1ccccc1)C(=O)c1nn(-c2ccc(OC)cc2)c(=O)c2c1c1ccccc1n2C | inconclusive [inhibitor, full curve, poor fit] | – |
| C=CCN(C(=O)C1CSC2(C)CCC(=O)N12)c1nc(-c2ccccc2)cs1 (stereo not drawn) | inconclusive [inhibitor, full curve] | – |

| Compound | Potency | activity change, negative = inhibition |
| --- | --- | --- |
| O=C(c1cccc(S(=O)(=O)N2CCOCC2)c1)N1CCCc2ccccc21 | – | inactive: -4.91% |
| COC(=O)c1c(N=CN(C)C)c(C#N)c2n1CCCC2 | inconclusive [inhibitor, full curve] | – |
| COC(=O)C1=C(CS(=O)(=O)c2ccc(Cl)cc2)NC(=O)NC1c1ccc(O)cc1 (stereo not drawn) | – | inactive: -10.6% |
| O=C(N/N=C/c1ccc([N+](=O)[O-])o1)C1CCCC1 | – | inactive: -6.85% |
| COc1ccc(CC(C)N2CCN(Cc3ccccc3)CC2)c(OC)c1 (stereo not drawn) | inconclusive [inhibitor, full curve, poor fit] | – |
| NC(=O)c1ccc(NC(=O)COC(=O)c2c3c(nc4ccccc24)/C(=C\c2cccs2)CCC3)cc1 | – | inactive: -2.89% |
| CC(C)(C)c1ccc(C(=O)N/C(=C\c2cccs2)C(=O)N2CCOCC2)cc1 | – | inactive: -2% |
| Cc1ccc(NC(=O)c2sc(Cl)nc2C)c(C)c1 | inconclusive [inhibitor, full curve, poor fit] | – |
| O=C(CNC(=O)c1cccc(Cl)c1)N/N=C/C=C/c1ccccc1 | inconclusive [inhibitor, single point] | – |
| CC1=C(C(=O)Nc2ccccc2)C(c2ccc(N(C)C)cc2)NC(=O)N1 (stereo not drawn) | inconclusive [inhibitor, full curve, poor fit] | – |
| CCSS(=O)(=O)c1cccc2cccnc12 | – | inactive: -1.63% |
| O=C(CSc1ncccc1-c1nc2ccccc2[nH]1)N1CCCCC1 | inconclusive [inhibitor, partial curve, poor fit] | – |
| O=C(CS(=O)(=O)c1cn(Cc2ccc(Cl)cc2)c2ccccc12)N1CCCC1 | inconclusive [inhibitor, full curve, poor fit] | – |
| COc1ccc(NCC(=O)N/N=C/c2c(C)nn(Cc3ccccc3)c2Cl)cc1 | inconclusive [inhibitor, full curve, poor fit] | – |
| Cc1cc(-n2c(C)cc(C(=O)CSc3ncnc4ccccc34)c2C)no1 | – | inactive: -0.228% |
| Cn1c(CCN2CCCCC2)nc2cc(NC(=O)COc3ccc(Cl)cc3)ccc21 | – | inactive: -14.8% |
| COc1cc2c(-c3cc(Br)ccc3O)nc3c(c(C)nn3-c3ccccc3)c2cc1OC | – | inactive: 9.19% |
| CN(CC(=O)Nc1ccccc1C(=O)NC1CC1)Cc1ccccc1F | inconclusive [inhibitor, full curve] | – |
| CCCSc1nnc2[nH]c(=O)cc(C)n12 | – | inactive: 1.07% |
| CN(C)Cc1n[nH]c(=O)c2ccccc12 | inconclusive [inhibitor, full curve, poor fit] | – |
| O=C(O)C1=C[C@@H](c2ccc(C(F)(F)F)cc2)C[C@@H](OCc2ccc(CO)cc2)O1 | – | inactive: -2.52% |
| COc1c([N+](=O)[O-])c(=O)oc2ccccc12 | inconclusive [inhibitor, full curve, poor fit] | – |
